Results as given in a compilation of properties of binary mixtures (doi:10.1021/je0498457).
Some of these densities may be calculated back from excess volumes.

Test: xn = mol fraction of the nth substance listed
Details: 100 kPa

C1CCOCC1 + CCCCO
Details	mass density [kg/m3]
283.15 K, x1 = 0.3039	841.8
283.15 K, x1 = 0.4059	849.8
283.15 K, x1 = 0.4905	856.3
283.15 K, x1 = 0.6081	865.2
283.15 K, x1 = 0.8027	879.8
298.15 K, x1 = 0.0508	809.8
298.15 K, x1 = 0.1039	814.1
298.15 K, x1 = 0.2056	822.1
298.15 K, x1 = 0.305	829.8
298.15 K, x1 = 0.406	837.4
298.15 K, x1 = 0.4909	843.7
298.15 K, x1 = 0.6079	852.2
298.15 K, x1 = 0.7054	859.3
298.15 K, x1 = 0.8047	866.5
298.15 K, x1 = 0.9043	873.7
298.15 K, x1 = 0.958	877.6
313.15 K, x1 = 0.1039	802.2
313.15 K, x1 = 0.2027	809.4
313.15 K, x1 = 0.3254	818.3
313.15 K, x1 = 0.4883	829.7
313.15 K, x1 = 0.6215	838.8
313.15 K, x1 = 0.8037	851.1
313.15 K, x1 = 0.8978	857.5
